Source: the supplement of paper PMC4967469

What was measured:
Assay in all cases: Viability of human cancer cell lines after 72 h of drug (GDSC screen)
JNK Inhibitor VIII = compound: CCOc1nc(NC(=O)Cc2cc(OC)ccc2OC)cc(N)c1C#N [JNK Inhibitor VIII]; conditions: top dose 10 µM; top dose inferred
Method: (§1)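 Human cancer cell lines in 384-well plates, medium with 10% serum, drug for 72 h over a 256-fold dose range (nine 2-fold or five 4-fold steps up to the top dose). Adherent lines were fixed and stained with the nucleic acid dye Syto60, suspension lines read with resazurin; signal relative to control wells, capped at 0 and 100%. One two-parameter sigmoid per drug and line, fitted in a mixed model over all curves with the slope shared within a line.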

AMG-706 = compound: CC1(C)CNc2cc(NC(=O)c3cccnc3NCc3ccncc3)ccc21 [AMG-706]; conditions: top dose 2 µM; top dose inferred
Method: as §1

FTI-277 = compound: COC(=O)[C@H](CCSC)NC(=O)c1ccc(NC[C@@H](N)CS)cc1-c1ccccc1 [FTI-277]; conditions: top dose 1.024 µM; top dose inferred
Method: as §1

NSC-207895 = compound: CN1CCN(c2ccc([N+](=O)[O-])c3no[n+]([O-])c23)CC1 [NSC-207895]; conditions: top dose 20 µM; top dose inferred
Method: as §1

CGP-60474 = compound: OCCCNc1cc(-c2ccnc(Nc3cccc(Cl)c3)n2)ccn1 [CGP-60474]; conditions: top dose 0.256 µM; top dose inferred
Method: as §1

YM155 = compound: COCC[n+]1c2c(n(Cc3cnccn3)c1C)C(=O)c1ccccc1C2=O [YM155]; conditions: top dose 5.12 µM
Method: as §1

OSI-906 = compound: C[C@]1(O)C[C@@H](c2nc(-c3ccc4ccc(-c5ccccc5)nc4c3)c3c(N)nccn32)C1 [OSI-906]; conditions: top dose 2.56 µM; top dose inferred
Method: as §1

Belinostat = compound: O=C(/C=C/c1cccc(S(=O)(=O)Nc2ccccc2)c1)NO [Belinostat]; conditions: top dose 20 µM; top dose inferred
Method: as §1

JNJ-26854165 = compound: c1ccc2c(CCNc3ccc(Nc4ccncc4)cc3)c[nH]c2c1 [JNJ-26854165]; conditions: top dose 10 µM
Method: as §1

SB-715992 = compound: Cc1ccc(C(=O)N(CCCN)[C@@H](c2nc3cc(Cl)ccc3c(=O)n2Cc2ccccc2)C(C)C)cc1 [SB-715992]; conditions: top dose 0.128 µM; top dose inferred
Method: as §1

Cyclopamine = compound: CC1=C2C[C@H]3[C@@H](CC=C4C[C@@H](O)CC[C@@]43C)[C@@H]2CC[C@]12O[C@@H]1C[C@H](C)CN[C@H]1[C@H]2C [Cyclopamine]; conditions: top dose 16 µM; top dose inferred
Method: as §1

JQ1 = compound: Cc1sc2c(c1C)C(c1ccc(Cl)cc1)=N[C@@H](CC(=O)OC(C)(C)C)c1nnc(C)n1-2 [JQ1]
Method: as §1

[1] = top dose 1 µM, screen: GDSC drug entry 1218, top dose inferred
[2] = top dose 2.56 µM, screen: GDSC drug entry 163

Cell Line | AUC (JNK Inhibitor VIII) | IC50 (JNK Inhibitor VIII) [nM] | AUC (AMG-706) | IC50 (AMG-706) [nM] | AUC (FTI-277) | IC50 (FTI-277) [nM] | AUC (NSC-207895) | IC50 (NSC-207895) [nM] | AUC (CGP-60474) | IC50 (CGP-60474) [nM] | AUC (YM155) | IC50 (YM155) [nM] | AUC (OSI-906) | IC50 (OSI-906) [nM] | AUC (Belinostat) | IC50 (Belinostat) [nM] | AUC (JNJ-26854165) | IC50 (JNJ-26854165) [nM] | AUC (SB-715992) | IC50 (SB-715992) [nM] | AUC (Cyclopamine) | IC50 (Cyclopamine) [nM] | AUC (JQ1; [1]) | IC50 (JQ1; [1]) [nM] | AUC (JQ1; [2]) | IC50 (JQ1; [2]) [nM]
697 (lymphoblastic leukaemia, suspension) | 0.979 | > 10000 | 0.983 | > 2000 | 0.988 | > 1020 | 0.835 | 9650 | 0.54 | 20.2 | 0.013 | < 20 | 0.955 | > 2560 | 0.094 | 89.7 | 0.819 | 4280 | 0.465 | 6.57 | 0.923 | > 16000 |  |  |  | 
A101D (melanoma, adherent) | 0.973 | > 10000 | 0.968 | > 2000 | 0.939 | > 1020 | 0.929 | > 20000 | 0.553 | 23 | 0.094 | < 20 | 0.974 | > 2560 | 0.508 | 1320 | 0.908 | > 10000 | 0.898 | > 128 | 0.981 | > 16000 | 0.923 | > 1000 | 0.627 | 389
A388 (skin, adherent) | 0.926 | > 10000 | 0.951 | > 2000 | 0.97 | > 1020 | 0.794 | 10800 | 0.659 |  | 0.038 | < 20 | 0.978 | > 2560 | 0.648 | 3430 | 0.878 | > 10000 | 0.765 | 53.8 | 0.925 | > 16000 | 0.964 | > 1000 | 0.488 | 147
Calu-6 (lung adenocarcinoma, adherent) | 0.984 | > 10000 | 0.984 | > 2000 | 0.976 | > 1020 | 0.959 | > 20000 | 0.856 | > 256 | 0.036 | < 20 | 0.965 | > 2560 | 0.34 | 418 | 0.934 | > 10000 | 0.783 | 62.4 | 0.975 | > 16000 | 0.973 | > 1000 | 0.804 | 1510
EM-2 (chronic myeloid leukaemia, suspension) | 0.977 | > 10000 | 0.982 | > 2000 | 0.978 | > 1020 | 0.925 | > 20000 | 0.83 | 190 | 0.032 | < 20 | 0.982 | > 2560 | 0.544 | 1670 | 0.896 | > 10000 | 0.922 | > 128 | 0.969 | > 16000 | 0.757 | 387 | 0.749 | 930
ES3 (Ewing sarcoma, adherent) | 0.911 | > 10000 | 0.936 | > 2000 | 0.979 | > 1020 | 0.985 | > 20000 | 0.914 | > 256 | 0.029 | < 20 | 0.743 | 830 | 0.348 | 462 |  |  | 0.608 | 16.2 | 0.979 | > 16000 | 0.983 | > 1000 | 0.767 | 999
EVSA-T (breast, adherent) | 0.976 | > 10000 | 0.951 | > 2000 | 0.991 | > 1020 | 0.802 | 8240 | 0.82 | 120 | 0.082 | < 20 | 0.991 | > 2560 | 0.273 | 317 | 0.94 | > 10000 | 0.836 | 68.6 | 0.883 | 12900 | 0.991 | > 1000 | 0.717 | 592
HEL (acute myeloid leukaemia, semi-adherent) |  |  |  |  | 0.975 | > 1020 | 0.871 | 13600 | 0.752 | 72.2 | 0.366 | 147 | 0.965 | > 2560 | 0.131 | 117 | 0.878 | 7280 | 0.889 | 103 | 0.981 | > 16000 | 0.991 | > 1000 | 0.589 | 268
HT-144 (melanoma, adherent) | 0.939 | > 10000 | 0.923 | > 2000 | 0.939 | > 1020 | 0.969 | > 20000 | 0.533 | 19.9 | 0.772 | 2210 |  |  | 0.983 | > 20000 | 0.87 | > 10000 | 0.979 | > 128 | 0.964 | > 16000 | 0.953 | > 1000 | 0.652 | 445
JAR (urogenital system, adherent) | 0.988 | > 10000 | 0.986 | > 2000 | 0.985 | > 1020 | 0.735 | 5760 | 0.756 | 86.1 | 0.026 | < 20 | 0.988 | > 2560 | 0.36 | 518 | 0.864 | 8410 | 0.701 | 29.1 | 0.969 | > 16000 | 0.985 | > 1000 | 0.987 | > 2560

Lines with a small IC50 respond at low doses; a fit beyond the top or the lowest dose is shown as a bound at that dose. AUC sums up the same curve from the lowest dose to the 256-fold higher top dose; it is 1 without any effect and falls as sensitivity rises. For some of these results: Where the top dose is marked as inferred, it was calculated from the reported fits. For some of these results: Drugs with an entry number were screened twice under separate entries, and the two screens often disagree.
